We go through 172 sequences from publication PMC6212790.

The other results are listed elsewhere or left out. At the low end of the ranking, values are background and their order means little.

The assay concerns the target T1, GST-Rok-C97-191 (UniProt O34857).
T1 sequence: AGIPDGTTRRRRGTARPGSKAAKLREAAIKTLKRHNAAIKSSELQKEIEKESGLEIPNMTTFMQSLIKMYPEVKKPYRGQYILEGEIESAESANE
In words: protein binding microarray.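 Also: rank score from −0.5 (least bound) to 0.5 (best bound).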 Particulars: Rok is a gene silencer of Bacillus subtilis; high values mean tight binding; most listed sequences are background and not binding sites; double strand, one strand shown.
For the sequence GCCGTCTA, the binding signal was 0.0106 E-score.

For the sequence CAGCTCAG, the binding signal was -0.102 E-score.

As to ACCCTAGT, the binding signal amounted to 0.0947 E-score.

Regarding TATTCTAA, the binding signal is 0.266 E-score.

In the case of ATACCGAA, the binding signal was determined as 0.132 E-score.

Take CGCGATTA: the binding signal is 0.0183 E-score.

In turn, CGGTATAG registered a binding signal of 0.074 E-score.

GAGGATCA: the binding signal is -0.113 E-score.

As to CAGTAAGG, the binding signal is -0.136 E-score.

With ACCCGCCG, the binding signal is -0.167 E-score.

Sequence CATGCAGG had a binding signal of 0.06 E-score.

AAGTTTTA came in with a binding signal of 0.28 E-score.

Turning to ATAATACG, the binding signal was determined as 0.344 E-score.

Regarding CATGCTTC, the binding signal is -0.0737 E-score.

Turning to CGTCCCCC, the binding signal was -0.266 E-score.

In the case of GGTGCTCA, the binding signal is -0.16 E-score.

As to GGGGCCTA, the binding signal is -0.285 E-score.

Turning to ACGTATCC, the binding signal was found to be 0.214 E-score.

For AAGTGAGG, the binding signal is -0.173 E-score.

Consider GGCCAAAC, for which the binding signal was -0.0521 E-score.

As to GCCTTGTA, the binding signal was -0.0156 E-score.

With ACCGACCC, the binding signal is -0.388 E-score.

ATATTTTA showed a binding signal of 0.384 E-score.

For the sequence GGACCTTA, the binding signal is -0.146 E-score.

AAAATCAT: the binding signal worked out at 0.192 E-score.

Take CCAGAACG: the binding signal is -0.0333 E-score.

Sequence ACTACACC registered a binding signal of 0.225 E-score.

Regarding AACAGCCG, the binding signal is -0.0305 E-score.

For AACAAGGT, the binding signal was -0.0981 E-score.

Regarding ATCGAGCA, the binding signal was -0.068 E-score.

CAAGATGG registered a binding signal of 0.0417 E-score.

For the sequence AAAGGATA, the binding signal was determined as 0.218 E-score.

Sequence CTATTGGA registered a binding signal of 0.125 E-score.

For the sequence AGCTTGTG, the binding signal was -0.199 E-score.

With AAAACGGC, the binding signal was -0.231 E-score.

Sequence TCGGTAGA registered a binding signal of 0.227 E-score.

Turning to AGACAACA, the binding signal was -0.204 E-score.

Regarding ACACTCGT, the binding signal worked out at 0.0895 E-score.

Sequence GTACTATA gave a binding signal of 0.436 E-score.

ACGAAACG: the binding signal was -0.0685 E-score.

With CCAACACC, the binding signal is -0.124 E-score.

AGGCATCA yielded a binding signal of 0.0352 E-score.

Regarding ACCTTGCG, the binding signal is -0.16 E-score.

ACAGTACC showed a binding signal of 0.0949 E-score.

As to CTAACAAA, the binding signal amounted to 0.14 E-score.

CTATCAGA yielded a binding signal of 0.239 E-score.

For CCACACAC, the binding signal was -0.0128 E-score.

As for ACGCACCC, the binding signal is -0.19 E-score.

Sequence ATGACCAA returned a binding signal of 0.0405 E-score.

For the sequence CCCGAACG, the binding signal was -0.0846 E-score.

Consider ATCCGGAA, for which the binding signal is 0.084 E-score.

For the sequence GTCACAAA, the binding signal came out at 0.0798 E-score.

Turning to GAACGATC, the binding signal was -0.13 E-score.

ATTACATG: the binding signal was 0.211 E-score.

GAGTAGCA showed a binding signal of 0.107 E-score.

As to AAGGCGCT, the binding signal is -0.115 E-score.

CGATCCTA yielded a binding signal of 0.121 E-score.

Take GTTCATTA: the binding signal is -0.0314 E-score.

As for CCTTAGTA, the binding signal was -0.005 E-score.

In the case of TATCGGCA, the binding signal was -0.0105 E-score.

In the case of AGAATGCC, the binding signal was -0.131 E-score.

Turning to AGCGTCGA, the binding signal is -0.071 E-score.

In turn, AAGATAGG gave a binding signal of 0.0239 E-score.

GAGGCTAA: the binding signal was -0.112 E-score.

Sequence GAACTTTA registered a binding signal of 0.197 E-score.

With CTACGTAA, the binding signal amounted to 0.119 E-score.

For the sequence CCACAGTC, the binding signal is -0.318 E-score.

In the case of CTTTCCTC, the binding signal was -0.119 E-score.

For TGTGACAA, the binding signal was -0.0396 E-score.

For AGTTGAGA, the binding signal was determined as 0.111 E-score.

Sequence CCGAGATA yielded a binding signal of 0.115 E-score.

As for GCAAGCCA, the binding signal is -0.18 E-score.

As for CCCCCGTA, the binding signal was -0.206 E-score.

For the sequence CGGACTGC, the binding signal was -0.213 E-score.

Consider CCATTGCC, for which the binding signal was -0.292 E-score.

Consider ATAATTAA, for which the binding signal was 0.298 E-score.

GCATAGAC: the binding signal was -0.0624 E-score.

In turn, CTATTAGC showed a binding signal of 0.234 E-score.

In turn, AAGATTTG came in with a binding signal of 0.0549 E-score.

CTTACGAC gave a binding signal of 0.0937 E-score.

On to CCGCTCCG, for which the binding signal is -0.187 E-score.

In the case of CTATCATC, the binding signal was found to be 0.262 E-score.

On to CCTGTCCA, for which the binding signal is -0.149 E-score.

Turning to AGGTAGGG, the binding signal is 0.0713 E-score.

In the case of TCGACCGA, the binding signal is -0.0843 E-score.

In the case of ATAGTATC, the binding signal was found to be 0.278 E-score.

Sequence ACTACATA showed a binding signal of 0.305 E-score.

In the case of CTATGGTC, the binding signal was -0.0653 E-score.

With CATCTTGG, the binding signal is -0.154 E-score.

Regarding ACCGAGAA, the binding signal was -0.0134 E-score.

Take AGACGGCA: the binding signal is -0.16 E-score.

On to CCGAGGAG, for which the binding signal is -0.298 E-score.

On to AGAAAACA, for which the binding signal was determined as 0.0817 E-score.

As to GAGAATCC, the binding signal is -0.0611 E-score.

As to CGAGTTCC, the binding signal was -0.114 E-score.

For GACCTCAC, the binding signal is -0.0476 E-score.

For AATCGTCG, the binding signal is -0.0319 E-score.

In turn, ACTATGTA displayed a binding signal of 0.356 E-score.

With AGAGATCG, the binding signal is -0.149 E-score.

As to GTTATTAA, the binding signal is 0.22 E-score.

Turning to GACATCGC, the binding signal is -0.0559 E-score.

GTTTCGTA registered a binding signal of 0.176 E-score.

CCATCGCA came in with a binding signal of 0.00937 E-score.

TAGTTGAA came in with a binding signal of 0.275 E-score.

AACAACTA registered a binding signal of 0.266 E-score.

For the sequence AACTACTG, the binding signal turned out to be 0.424 E-score.

As for AGCTAGAC, the binding signal was 0.0593 E-score.

For the sequence AAGTCGTC, the binding signal was found to be 0.172 E-score.

Regarding GCGTCGAA, the binding signal is 0.0686 E-score.

For the sequence GGTACGGA, the binding signal is -0.029 E-score.

For GGTTGTAA, the binding signal is 0.257 E-score.

In turn, AAAAAGTA had a binding signal of 0.209 E-score.

As to TTATACAA, the binding signal came to 0.222 E-score.

For AAGAGTGG, the binding signal was -0.145 E-score.

Turning to GGTACCTA, the binding signal was 0.314 E-score.

Take GAACTTAA: the binding signal is -0.0271 E-score.

As to AGGGCCTC, the binding signal is -0.229 E-score.

In the case of CATTCTTC, the binding signal was -0.00808 E-score.

AAAGTCAT: the binding signal was -0.0308 E-score.

Consider AAACCTCA, for which the binding signal was -0.0824 E-score.

In the case of CATGCCCC, the binding signal is -0.186 E-score.

ACACCTCA had a binding signal of 0.0475 E-score.

Take AAAAAATA: the binding signal was determined as 0.323 E-score.

ACTCGGAA: the binding signal is -0.0218 E-score.

GTGCAGCA: the binding signal is -0.0437 E-score.

As to ATGATAGG, the binding signal was 0.0735 E-score.

For CTGAAATC, the binding signal was determined as 0.0754 E-score.

Regarding ATGCGCTA, the binding signal is 0.219 E-score.

ACACCATC: the binding signal was 0.00943 E-score.

ATCGATAA came in with a binding signal of 0.254 E-score.

GGATAGCA returned a binding signal of 0.037 E-score.

For the sequence AAAAGAGC, the binding signal is -0.185 E-score.

Consider CGAACCAC, for which the binding signal is -0.165 E-score.

On to CAGCAACG, for which the binding signal is -0.049 E-score.

AGCTAGCG gave a binding signal of 0.0179 E-score.

As to ATATAGGC, the binding signal was -0.04 E-score.

As to CTACGATC, the binding signal turned out to be 0.228 E-score.

With ACAATAGC, the binding signal is 0.132 E-score.

GCGTTATA: the binding signal was 0.194 E-score.

Take ATCCGCCC: the binding signal is -0.107 E-score.

On to ACGTGACT, for which the binding signal is 0.0412 E-score.

Regarding ACAGGCTA, the binding signal is -0.0679 E-score.

In turn, CTATCGCA had a binding signal of 0.109 E-score.

On to AGTCGGAC, for which the binding signal was -0.13 E-score.

ACATGAGC: the binding signal is 0.158 E-score.

For CCTGCTCC, the binding signal was -0.376 E-score.

In turn, CCAAAGTA registered a binding signal of 0.144 E-score.

For CGTTTTCC, the binding signal was -0.065 E-score.

On to TAACCTCA, for which the binding signal is 0.0294 E-score.

Take ACTTTAAC: the binding signal turned out to be 0.131 E-score.

Take GACCTTGC: the binding signal was -0.129 E-score.

Turning to ATCGTAGG, the binding signal was -0.00208 E-score.

GACAGCGA: the binding signal is -0.193 E-score.

AGAATGAC registered a binding signal of 0.117 E-score.

On to GACTAGCA, for which the binding signal came out at 0.101 E-score.

As for AGACCACG, the binding signal was -0.138 E-score.

Turning to AGACCCGA, the binding signal was -0.216 E-score.

Sequence ATTACCAC registered a binding signal of 0.181 E-score.

With ATCCCCTA, the binding signal was -0.0867 E-score.

On to CAGGCAGG, for which the binding signal was -0.243 E-score.

Take GCATCTCC: the binding signal was -0.165 E-score.

As to AGGTTATG, the binding signal came to 0.0503 E-score.

AAGGAGGC: the binding signal was -0.227 E-score.

AGTTGCCA yielded a binding signal of 0.0801 E-score.

Turning to GCGGTGCA, the binding signal was -0.13 E-score.

Regarding AGAACGTG, the binding signal is -0.0462 E-score.

As for AGTCGGAA, the binding signal was -0.0315 E-score.

In turn, GGAAGTAA yielded a binding signal of 0.109 E-score.

In turn, CAGTTACC yielded a binding signal of 0.221 E-score.

In the case of CGTGACAA, the binding signal is -0.00338 E-score.

As to CAAAAACA, the binding signal is 0.11 E-score.

As for ATCATAGC, the binding signal amounted to 0.114 E-score.
